This is an account of results in PubChem BioAssay AID488969 (Vanderbilt High Throughput Screening Facility, 2010).

Whole data set: some 110,000 compounds, median “z-score” near -0.1, cut for the highest 2% near 2. The list shows a part of the results.

This test addresses Metabotropic glutamate receptor 8 (Rattus norvegicus) (UniProt P70579). Nature of the test: rat mGluR8 modulators via GIRK flux, primary screen, cell-based, thallium flux, HTS (AID 488969). The note with it: HEK293 rat mGluR8, GIRK (G protein-gated inwardly rectifying potassium channel) thallium flux, FluoZin2; at 10 µM; stronger effect = higher value; submaximal glutamate (EC20) added with thallium.
Sequence of UniProt P70579 (P70579 whole entry, looked up): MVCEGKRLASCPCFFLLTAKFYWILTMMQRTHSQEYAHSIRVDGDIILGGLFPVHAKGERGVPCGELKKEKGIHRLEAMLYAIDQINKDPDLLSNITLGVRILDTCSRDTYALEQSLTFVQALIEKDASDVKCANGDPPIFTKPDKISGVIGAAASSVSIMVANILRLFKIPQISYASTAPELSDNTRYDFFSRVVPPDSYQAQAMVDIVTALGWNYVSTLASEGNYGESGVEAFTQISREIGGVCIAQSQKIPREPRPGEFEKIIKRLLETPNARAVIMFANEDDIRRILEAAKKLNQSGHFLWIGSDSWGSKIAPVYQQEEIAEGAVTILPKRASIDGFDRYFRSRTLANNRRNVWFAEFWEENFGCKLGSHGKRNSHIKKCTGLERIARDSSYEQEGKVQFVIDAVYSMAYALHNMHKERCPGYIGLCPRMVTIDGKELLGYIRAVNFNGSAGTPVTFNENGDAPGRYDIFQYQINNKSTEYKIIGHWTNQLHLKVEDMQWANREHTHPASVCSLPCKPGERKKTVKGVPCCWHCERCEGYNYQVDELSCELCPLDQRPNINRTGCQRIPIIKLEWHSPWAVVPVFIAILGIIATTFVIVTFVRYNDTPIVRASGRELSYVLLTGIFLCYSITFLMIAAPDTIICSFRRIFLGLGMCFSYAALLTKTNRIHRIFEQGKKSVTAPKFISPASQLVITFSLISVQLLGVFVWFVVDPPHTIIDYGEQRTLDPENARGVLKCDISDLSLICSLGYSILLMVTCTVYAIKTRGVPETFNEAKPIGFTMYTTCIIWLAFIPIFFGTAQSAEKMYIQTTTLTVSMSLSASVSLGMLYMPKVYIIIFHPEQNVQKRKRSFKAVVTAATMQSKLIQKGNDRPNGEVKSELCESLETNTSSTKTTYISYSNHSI
Regarding `O=C(CCSc1ccccc1)Nc1ccc(OCc2ccccc2)cc1`, the z-score is -0.315.
For `CCOc1ccc(C(=O)Nc2cc(-c3nc4ccccc4[nH]3)ccc2C)cc1[N+](=O)[O-]` the value was -0.431; for `O=S(=O)(c1cccc(-n2cnnn2)c1)N1CCOCC1`, 0.693.
In the case of `COC(=O)c1c(C)c(C)nc(N)c1C#N` it was 1.3; in that of `O=C(CNS(=O)(=O)c1c(Cl)cccc1Cl)OCc1csc(-c2ccccc2)n1`, -0.71.
For the molecule `CCn1c(NCc2ccccc2NS(=O)(=O)c2ccc(C)cc2)nc2ccccc21`, the z-score is -0.0308.
`CC(C)CC(O)(CC(C)C)C(=O)NNc1ccccc1` yielded a z-score of -0.454.
In the case of `Cc1cccc(NC(=O)CCOc2ccccc2)c1` it was 0.192; in that of `CCCC(=O)Nc1cccc(-c2nc3ccccc3o2)c1`, -0.457; in that of `O=c1[nH]c(/C=C/c2ccccc2[N+](=O)[O-])nc2ccccc12`, -0.122.
In the case of `COC(=O)C1=C(C)N(c2cccc(C(C)=O)c2)C(=O)C1` it was -0.0346; in that of `O=C(NCC1CCCO1)c1csc2c1CCCCC2` (configuration not stated), 0.253.
`CC1(C)Oc2ccc(C(=O)N3CCc4ccccc43)cc2N(CC(=O)N2CCCC2)C1=O` had a z-score of -0.384.
For `Cc1cc(C(=O)NCCCc2ccccc2)no1` the value was -0.145; for `N=C1/C(=C/c2cccn2Cc2ccc(Cl)cc2)C(=O)N=C2SC=CN12`, 0.0351.
In turn, `COc1ccc2[nH]c(=O)c(CN(Cc3nnnn3Cc3ccc(F)cc3)CC3CCCO3)cc2c1` (configuration not stated) showed a z-score of -0.725.
Take `CC(/C=N\NC(=O)c1cccnc1)c1ccccc1` (configuration not stated): the z-score is -0.201.
In the case of `Cc1ccc(-c2nc3ccccc3s2)cc1NC(=S)NC(=O)/C=C/c1ccco1` it was 0.194; in that of `COc1ccc(OC)c(NC(=O)C2COc3ccccc3O2)c1` (configuration not stated), 0.757.
In the case of `O=C(Nc1cc([N+](=O)[O-])ccc1F)c1cccs1` it was -0.0753.
In the case of `O=C(Nc1ccccc1N1CCCCC1)c1ccc(N2C(=O)c3ccccc3C2=O)cc1` it was 0.165; in that of `CC(=O)Nc1ccc(S(=O)(=O)NCC(=O)OCc2ccccc2)cc1`, -0.253; in that of `CCN1/C(=C2\SC(=S)N(Cc3ccccc3)C2=O)Sc2ccccc21`, -0.0706.
With `COc1ccc(S(=O)(=O)Nc2ccccc2C(=O)NCc2ccco2)cc1`, the z-score was -0.614.
In the case of `CCOC(=O)N1CCN(C(=O)c2ccc(N(Cc3ccc(C)cc3)S(C)(=O)=O)cc2)CC1`, the z-score is 0.151.
Regarding `CCCn1nnc(NC(=O)c2ccc(-c3ccccc3)cc2)n1`, the z-score was -0.862.
Molecule `Oc1ccccc1CNc1cnc2ccccc2c1` showed a z-score of 0.084.
In the case of `COC(=O)c1cccc(NC(=O)CN(c2ccc3c(c2)OCO3)S(C)(=O)=O)c1C` it was -0.13; in that of `Cc1ccc(N(C)C(=O)N2CCN(S(=O)(=O)c3ccc(C)c(C)c3)CC2)cc1`, 0.307.
Consider `CN1C=CC=C/C1=C(\C#N)c1nc2ccccc2[nH]1`, for which the z-score came out at 0.292.
For `CC(C)C(NS(=O)(=O)c1cccs1)C(=O)Nc1nc(C(C)(C)C)cs1` (configuration not stated) the value was -0.259.
For `Cc1nnc(Oc2ccccc2)c2ccccc12` the value was 0.0484; for `Cc1c(C(=O)N2CCC(C)CC2)oc2ccc(S(=O)(=O)N3CCC4(CC3)OCCO4)cc12`, -0.178.
`COC(=O)c1cccc(NC(=O)CSc2nnc(COc3ccc(C#N)cc3)n2-c2ccccc2)c1` returned a z-score of -0.426.
For `c1cncc(-c2nnc(SCc3nc4ccccc4[nH]3)o2)c1` the value was 0.802; for `CCS(=O)(=O)c1ccc2oc(Nc3cc(C)cc(C)c3)nc2c1`, -0.316.
Regarding `COc1ccccc1NC(=O)C(C)N1CCN(C/C=C/c2ccccc2)CC1` (configuration not stated), the z-score was found to be 0.673.
In the case of `O=C(O)CC(c1cccc2ccccc12)n1cccc1` (configuration not stated) it was -0.0602.
Molecule `COc1ccc(S(=O)(=O)N(C)CC(=O)NC2CC2)cc1` returned a z-score of -0.0627.
In the case of `Cc1ccc(N=C2NC(=O)C(CC(=O)O)S2)cc1` (configuration not stated) it was -0.0604; in that of `COC(=O)c1ccccc1NC(=O)CS(=O)(=O)Cc1nc(-c2ccc(C)cc2)oc1C`, 0.0108.
In the case of `Cc1ccc(/C=C/C(=O)NC(C)c2ccccc2)cc1` (configuration not stated) it was -0.0101.
The molecule `COC(=O)c1c(NC(=O)C(C)C)sc2c1C(C(=O)OC)CC2` (configuration not stated) had a z-score of 0.214.
In the case of `CCC(C)(C(=O)Nc1ccc2c(c1)OCCO2)N(C(C)=O)c1ccc(C(N)=O)cc1` (configuration not stated) it was -0.102; in that of `Cc1cc(C)nc(/N=C2\NC(=O)CC(C(=O)O)N2c2ccc(Oc3ccccc3)cc2)n1` (configuration not stated), -0.468.
As for `Cc1ccc(S(=O)(=O)N2CCCCC2C(=O)N2CCN(c3ccccc3F)CC2)cc1` (configuration not stated), the z-score is -0.123.
For `Cc1ccc(NC(=O)CCC(=O)NNC(=O)Cc2ccccc2)cc1C` the value was -0.223.
In the case of `CCOC(=O)C1CCCN(c2c(N3CCC(N4CCCCC4)CC3)c(=O)c2=O)C1` (configuration not stated) it was -0.283; in that of `Cc1cc(-c2n[nH]c(=S)n2/N=C/c2ccc(Cl)c([N+](=O)[O-])c2)n[nH]1`, -0.643; in that of `COc1ccc(C2NCCC3(O)CCCCC23)c(OC)c1OC` (configuration not stated), -0.178.
For `CCN1CCCC1CNC(=O)C1c2cc(OC)c(OC)cc2C(=O)N(C)C1c1cccnc1` (configuration not stated) the value was 0.289.
In turn, `Cc1nc2ccc(S(=O)(=O)NCC(=O)N3CCC(N4CCCCC4)CC3)cc2s1` displayed a z-score of -0.313.
In the case of `Cc1ccc(Nc2nc(N3CCN(C)CC3)nc(N)c2[N+](=O)[O-])cc1C` it was -0.41; in that of `COc1ccc(C2=NO[C@@H]3C(=O)N(Cc4ccccc4)C(=O)[C@H]23)cc1OC`, -0.0568.
`CCOC(=O)c1nnn(-c2nonc2N)c1-c1cccs1` yielded a z-score of 0.422.
In the case of `CCc1nc(N2CCN(Cc3ccc4c(c3)OCO4)CC2)c2oc3ccccc3c2n1` it was -0.164; in that of `Cc1c(NC(=O)Cn2nc(C(F)(F)F)c3c2CCCC3)c(=O)n(-c2ccccc2)n1C`, 0.0686; in that of `COC(=O)c1cccc(OCC(O)Cn2cnc3cc(C)c(C)cc32)c1` (configuration not stated), 0.468.
In the case of `CCOc1ccccc1C1C(C(N)=O)=C(C)Nc2nc(CCCO)nn21` (configuration not stated), the z-score is -0.297.
In the case of `COc1cc(/C=C2\SC(=S)N(CC(=O)Nc3cccnc3)C2=O)cc(OC)c1OC` it was -2.09.
In the case of `CC1=C(C(=O)Nc2ccccc2)C2(CCCCC2)C(C#N)=C(S)N1`, the z-score amounted to 0.112.
`COc1ccc(C(=O)c2c(C(F)(F)F)oc3c2C(=O)c2ccccc2C3=O)cc1` yielded a z-score of -0.134.
In the case of `O=C(Nc1cccnc1Cl)c1cccnc1Cl` it was -0.102; in that of `COc1ccc(NC(=O)CCCN2C(=O)/C(=C\c3ccco3)SC2=S)cc1`, -0.159.
In the case of `Cc1ccnc2nc(C(=O)Nc3nnc(CC(C)C)s3)nn12` it was -0.0103.
For `O=C(CN1CCCC1)Nc1ccccc1Cl` the value was 0.447.
In the case of `O=C(Cn1cnc2scc(-c3ccccc3)c2c1=O)N1CCOCC1`, the z-score was -0.259.
For `CC(C)CC(=O)Nc1ccc(C(=O)NNC(=S)NC(=O)C2CCCCC2)cc1` the value was 0.595; for `CC(C)n1c(Nc2ccccc2)nc2ccccc21`, -1.16; for `COc1ccc2c(CC(=O)OCC(=O)Nc3sc4c(c3C#N)CCC(C)C4)coc2c1` (configuration not stated), -0.086.
For `CCOc1ccc(NC(=O)N[C@@H](CCSC)C(=O)OC)cc1` the value was 0.712.
For `Cc1sc2ncn(CC(=O)OCC(=O)NC(C)(C)C)c(=O)c2c1C` the value was 1.21; for `CCN(CC)S(=O)(=O)c1cccc(NC(=O)Nc2cccc(C(F)(F)F)c2)c1`, -0.0411.
The molecule `COc1ccccc1NC(=O)c1ccc(NC(=O)CSc2nncn2C)cc1` registered a z-score of -0.137.
For `Cc1cc(C)nc(N(C#N)CC(=O)N2CCC(C(N)=O)CC2)n1` the value was -0.183.
The molecule `O=C(COc1ccccc1[N+](=O)[O-])N/N=C/c1ccc(O)cc1` returned a z-score of -0.203.
In the case of `COc1ccc(S(=O)(=O)Cc2ccc(C(=O)NC3CCCC3)o2)cc1`, the z-score was -0.108.
For `COC(=O)c1ccc2[nH]c(C)cc(=O)c2c1` the value was 0.284.
For `COC(=O)c1c(C)n(-c2ccc(OC)cc2)c2ccc(O)cc12` the value was -0.559; for `Cc1ccc(NCC(=O)c2ccccc2)cc1Cl`, -0.202.
In the case of `COc1ccccc1N1CCc2c(C)nc3c(OC)cccc3c21` it was -0.0829; in that of `Cc1cccc2cc(CN(CCCO)C(=O)Nc3ccccc3Cl)c(=O)[nH]c12`, -0.0225; in that of `COc1ccc(N2COC3c4cccc5cccc(c45)C32)cc1` (configuration not stated), -0.311.
With `COc1ccc(CC(=O)OCn2nnc3ccccc3c2=O)cc1`, the z-score was -0.0754.
Take `CCOc1ccc(-c2nnc(SCC(=O)Nc3ccc4c(c3)c3ccccc3n4CC)n2N)cc1`: the z-score was -0.0283.
`COc1ccc(OC)c(NC(=O)CSc2nnc(Cc3cccn3C)n2CCc2ccccc2)c1` displayed a z-score of 0.0253.
For `NC(=O)c1cc(N)ccc1N1CCCC1` the value was -0.67; for `CC1CCc2c(C(=O)N3CCN(S(=O)(=O)c4cccs4)CC3)csc2C1` (configuration not stated), -0.257.
`O=C(Nc1ccccc1SCC1CSc2nc3ccccc3c(=O)n21)c1ccccc1` (configuration not stated) had a z-score of -0.26.
Turning to `COc1ccccc1C(C)NCC(=O)Nc1ccccc1C(F)(F)F` (configuration not stated), the z-score was -0.161.
For `COc1ccc(N(CC(=O)N2CCC(C)CC2)S(=O)(=O)c2c(C)nn(C)c2C)cc1` the value was -0.194.
`COc1ccc2cc(C(c3nnnn3CCc3ccccc3)N3CCC(O)CC3)c(=O)[nH]c2c1` (configuration not stated) registered a z-score of 0.0569.
For `CCc1ccc(NC(=O)COc2ccc(F)cc2C(=O)c2cnn(-c3ccccc3)c2)cc1` the value was 0.0381.
`COc1ccc2c(=O)c(N3C(=O)c4ccccc4C3=O)c(C)oc2c1` showed a z-score of 0.277.
`O=S(=O)(c1ccc(F)cc1)N1CCC(N2CCN(c3ccccc3)CC2)CC1`: the z-score was 0.169.
Molecule `CC(=O)N1CCc2cc(S(=O)(=O)NC(Cc3ccccc3)C(=O)NC3CCCCCC3)ccc21` (configuration not stated) returned a z-score of 1.14.
For `CCN1CCN(CCCNC(=O)c2cc3c(=O)[nH]c4ccccc4c3s2)CC1`, the z-score turned out to be 0.477.
`Cc1ccc(Cl)cc1NC(=O)Cn1cc(C(F)(F)F)cc(Cl)c1=O` showed a z-score of -0.0129.
For `COc1ccc2c(c1)CCN(C(=O)CCl)C2C1C(=O)CCCC1=O` (configuration not stated) the value was -0.164; for `O=C(N/N=C/c1cc(Br)c(O)c(Br)c1)c1cccc(C(F)(F)F)c1`, -0.108; for `CCc1nnc(NC(=O)CSc2nnc(COc3ccccc3)n2-c2ccc(C)cc2)s1`, 0.164.
For `Cc1ccc2nc(SCC(=O)Nc3c(C)n(C)n(-c4ccccc4)c3=O)[nH]c2c1` the value was 1.92; for `Cc1ccc(-c2nc(CSc3nc4ccccc4c(=O)n3CCO)cs2)cc1`, -0.0706.
In the case of `CC1(C)CC2CC(C)(CN2C(=O)COC(=O)c2cc(Cl)cc(Cl)c2N)C1` (configuration not stated) it was -0.444; in that of `Cc1ccc(Cl)cc1-c1ccc(/C=N/n2cnnc2)o1`, 0.0572.
With `Cc1cc(C)c(C(=O)CSc2nnc(-c3ccccc3Br)o2)cc1C`, the z-score is 0.0376.
The molecule `Cc1ccccc1C(=O)NC(C)c1ccc2c(c1)CCCC2` (configuration not stated) registered a z-score of -0.141.
